Experimental findings from article PMC5700166 are described below.

This is a selection; strong and weak results do not stand in their true shares. The list includes weakly bound sequences.

The target of this test is T1, GST-Nv-NF-kB (Cys allele) (UniProt E5G601).
T1 sequence: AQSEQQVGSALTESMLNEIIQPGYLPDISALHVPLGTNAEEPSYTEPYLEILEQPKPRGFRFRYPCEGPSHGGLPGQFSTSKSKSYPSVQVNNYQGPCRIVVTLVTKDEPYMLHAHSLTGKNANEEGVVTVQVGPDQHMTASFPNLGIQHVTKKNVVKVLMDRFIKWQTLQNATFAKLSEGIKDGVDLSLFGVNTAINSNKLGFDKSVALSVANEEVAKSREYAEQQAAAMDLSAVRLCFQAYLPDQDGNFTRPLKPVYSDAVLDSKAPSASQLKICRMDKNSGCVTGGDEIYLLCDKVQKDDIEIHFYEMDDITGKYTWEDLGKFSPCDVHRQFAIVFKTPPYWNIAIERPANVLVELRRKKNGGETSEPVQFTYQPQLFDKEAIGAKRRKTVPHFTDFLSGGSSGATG
Nature of the test: protein-binding microarray (PBM). To be noted: PBM: ~300 nM protein, 6 mM HEPES pH 7.8, 80 mM KCl, 0.5 mM EDTA, 0.5 mM EGTA, 6% glycerol, 35 ng/ul poly-dIdC, 1% milk, 1 h, room temperature; Ap Aiptasia and Nv Nematostella (sea anemones) / Co Capsaspora / Aq Amphimedon (sponge) / Dm Drosophila / Hu human; RHD is the Rel homology domain; high values mean tight binding; most listed sequences are background and not binding sites; double strand, one strand shown.
For the sequence “CCGATTAACATCACGGTACGGGGTGATGTTAATCGGGTCTTGATTCGCTTGACGCTGCTG”, the binding signal was 0.741 z-score. Sequence “CCGATTAACATCAGGGGGCAAGATGATGTTAATCGGGTCTTGATTCGCTTGACGCTGCTG” showed a binding signal of 2.14 z-score. Regarding “CCGATTAACATCATAAACCCCCATGATGTTAATCGGGTCTTGATTCGCTTGACGCTGCTG”, the binding signal was determined as 4.95 z-score. The value for “CCGATTAACATCAATTTCCCACCTGATGTTAATCGGGTCTTGATTCGCTTGACGCTGCTG” was 3.38 z-score; that for “CCGATTAACATCACACAATCCCCTGATGTTAATCGGGTCTTGATTCGCTTGACGCTGCTG” was 6.65 z-score; that for “CCGATTAACATCAGGGGGAAGTATGATGTTAATCGGGTCTTGATTCGCTTGACGCTGCTG” was 6.23 z-score. Then “CCGATTAACATCAAATTCCCAGCTGATGTTAATCGGGTCTTGATTCGCTTGACGCTGCTG”, with 3.6 z-score.

With “CCGATTAACATCACAAAAGCCCCTGATGTTAATCGGGTCTTGATTCGCTTGACGCTGCTG”, the binding signal turned out to be 8.09 z-score. Then “CCGATTAACATCAGGATATCCCATGATGTTAATCGGGTCTTGATTCGCTTGACGCTGCTG”, with 0.222 z-score; and “CCGATTAACATCACTAAAATCCCTGATGTTAATCGGGTCTTGATTCGCTTGACGCTGCTG”, with 3.38 z-score.

“CCGATTAACATCAAGATTCCCCCTGATGTTAATCGGGTCTTGATTCGCTTGACGCTGCTG” gave a binding signal of 9.42 z-score. Then “CCGATTAACATCACATACCCCCCTGATGTTAATCGGGTCTTGATTCGCTTGACGCTGCTG”, with 3.25 z-score; and “CCGATTAACATCAGGGAAAAAAATGATGTTAATCGGGTCTTGATTCGCTTGACGCTGCTG”, with 5.81 z-score; and “CCGATTAACATCACGGATATCCCTGATGTTAATCGGGTCTTGATTCGCTTGACGCTGCTG”, with 0.744 z-score.

The sequence “CCGATTAACATCAGGGAGTCCCATGATGTTAATCGGGTCTTGATTCGCTTGACGCTGCTG” registered a binding signal of 3.33 z-score. The value for “CCGATTAACATCAAGCGTTCCCCTGATGTTAATCGGGTCTTGATTCGCTTGACGCTGCTG” was 5.36 z-score; that for “CCGATTAACATCAATTTTCCCACTGATGTTAATCGGGTCTTGATTCGCTTGACGCTGCTG” was 3.99 z-score.

In the case of “CCGATTAACATCAGGAATTACCCTGATGTTAATCGGGTCTTGATTCGCTTGACGCTGCTG”, the binding signal came to 7.58 z-score.

Turning to “CCGATTAACATCAGGGGAGGGACTGATGTTAATCGGGTCTTGATTCGCTTGACGCTGCTG”, the binding signal stood at 4.69 z-score. As to “CCGATTAACATCAGGGGACGCACTGATGTTAATCGGGTCTTGATTCGCTTGACGCTGCTG”, the binding signal was found to be 4.2 z-score. “CCGATTAACATCACGGAACTCCCTGATGTTAATCGGGTCTTGATTCGCTTGACGCTGCTG” gave a binding signal of 3.34 z-score. Then “CCGATTAACATCAGGGGGTTCTATGATGTTAATCGGGTCTTGATTCGCTTGACGCTGCTG”, with 5.57 z-score; and “CCGATTAACATCAGGGGAATCTATGATGTTAATCGGGTCTTGATTCGCTTGACGCTGCTG”, with 8.91 z-score. Sequence “CCGATTAACATCAATCGTCCCCCTGATGTTAATCGGGTCTTGATTCGCTTGACGCTGCTG” came in with a binding signal of 4.15 z-score. Then “CCGATTAACATCAGGGAAATTTATGATGTTAATCGGGTCTTGATTCGCTTGACGCTGCTG”, with 8.28 z-score; and “CCGATTAACATCAGGGAATAACCTGATGTTAATCGGGTCTTGATTCGCTTGACGCTGCTG”, with 6.79 z-score. The value for “CCGATTAACATCAGGGGTATTTATGATGTTAATCGGGTCTTGATTCGCTTGACGCTGCTG” was 5.26 z-score; that for “CCGATTAACATCAGGGATGCCCCTGATGTTAATCGGGTCTTGATTCGCTTGACGCTGCTG” was 8.09 z-score; that for “CCGATTAACATCAAATTTCCCGATGATGTTAATCGGGTCTTGATTCGCTTGACGCTGCTG” was 4.4 z-score. Then “CCGATTAACATCAGGCACTCCCCTGATGTTAATCGGGTCTTGATTCGCTTGACGCTGCTG”, with 3.18 z-score; and “CCGATTAACATCAAAGAAATCCCTGATGTTAATCGGGTCTTGATTCGCTTGACGCTGCTG”, with 4.34 z-score. “CCGATTAACATCAGGGCAACCCCTGATGTTAATCGGGTCTTGATTCGCTTGACGCTGCTG” came in with a binding signal of 2.55 z-score.

“CCGATTAACATCAGGCCACCCCCTGATGTTAATCGGGTCTTGATTCGCTTGACGCTGCTG”: the binding signal was 2.49 z-score. Then “CCGATTAACATCAGAAAGTTCCCTGATGTTAATCGGGTCTTGATTCGCTTGACGCTGCTG”, with 4.74 z-score; and “CCGATTAACATCAGGGGACGGGATGATGTTAATCGGGTCTTGATTCGCTTGACGCTGCTG”, with 3.92 z-score.

Consider “CCGATTAACATCAAATTGTCCCCTGATGTTAATCGGGTCTTGATTCGCTTGACGCTGCTG”, for which the binding signal came to 5.87 z-score. Then “CCGATTAACATCACGGGATTTCCTGATGTTAATCGGGTCTTGATTCGCTTGACGCTGCTG”, with 4.51 z-score; and “CCGATTAACATCAGGATTCTCCCTGATGTTAATCGGGTCTTGATTCGCTTGACGCTGCTG”, with 4.71 z-score. The value for “CCGATTAACATCAGGGGGATTCATGATGTTAATCGGGTCTTGATTCGCTTGACGCTGCTG” was 7.43 z-score.
